Measurements taken from the supplement of paper PMC11417369.
± gives the standard deviation of the averaged measurements. The list shows a part of the results.

Each sequence was assayed on PfAP2-LT AP2 domain (GST-tagged) (assay: gcPBM binding intensity (ln(normalized median fluorescence intensity)); higher = stronger DNA binding).
Method in brief: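 Binding intensity values are the highest Masliner-normalised natural-log median intensity among replicate spots of either probe orientation. The binding step lasted 1 h in 1× PBS with 1% milk, 0.2 mg/ml BSA, 0.5% salmon testes DNA and 0.03% Triton X-100, using GST-tagged P. falciparum DNA-binding domains expressed in E. coli on an Agilent 4 × 180k array of primer-extended double-stranded 36-bp intergenic genomic probes plus negative controls. Alexa488 anti-GST antibody and a 488 nm scan detected bound protein.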

Row | Sequence | gcPBM binding intensity (ln)
1 | TTTTATTATAATAATTGTACAAAAATTATTTAATAT [XGTACX_site6054] | 8.25 ± 0.4
2 | TTAATTTATTATCTTTGTACACAATTAAAAAAAAAA [XGTACX_site3469] | 8.08 ± 0.45
3 | ATAAATATACATTATACCGACCATGTGGATATTATA [XGTACX_negctrl_site241] | 8.85 ± 0.35
4 | ATTATACATATTATATGTACATATATAAATAAATAA [XGTACX_site7076] | 8.7 ± 0.38
5 | TTATTTTTATATTTTAATTTTAAAAAAATTTTAATT [CACACA_negctrl_site777] | 7.89 ± 0.6
6 | TTTTGGTTTTGTTCTACACACATAAAAAAAAAAAAG [CACACA_site2276] | 8.65 ± 0.33
7 | TTTCTATTTATTAATACATGCAAAATAAAGTAAAGT [TGCATGCA_site209] | 8.69 ± 0.3
8 | ATATATCAATATGGAATATATATATATATATATATA [TGCATGCA_negctrl_site502] | 9.535 ± 0.078
9 | ATATATATAAATAAATGTACATAAATAATATATTAT [XGTACX_site5419] | 8.87 ± 0.45
10 | TATATATATATATATATATTTATGTATTTATTTAAT [TGCATGCA_negctrl_site179] | 9.27 ± 0.39
11 | AGCTGAAAAAAAAGCTTGCACACGTATTTGCTTTAT [CACACA_site1512] | 9.14 ± 0.35
12 | AATAATAAGAATAACGCATGCACATATAATATAGAA [TGCATGCA_site3] | 9.21 ± 0.49
13 | TTTTTTTGTTATATCCTGCACTTCTTAACTATATTA [GTGCAC_site9807] | 8.93 ± 0.53
14 | CATATTATATTCTGCTTACACACATATATATATATA [CACACA_site3059] | 9.395 ± 0.078
15 | GTTTTTTATATAAGGTGGTCAACATTGTAATGTTAA [XGTACX_site3204] | 8.6 ± 0.37
16 | AATATGTAGTAATCAAGTACTAATGTCTTAATTCGG [XGTACX_site308] | 8.82 ± 0.38
17 | GTATATATGTATATGTGTACACATATTCTTAACTCA [XGTACX_site309] | 9.02 ± 0.46
18 | ATATAAATTGGCAATAGTACATAAAGGCATAGAAAG [XGTACX_site2674] | 9.03 ± 0.44
19 | AAATTACACATCCATACACACATATTTTTTTTAATT [CACACA_site5242] | 9.11 ± 0.38
20 | AATAATAGAAGCACCCACCCACCACCACCCACACAT [CACACA_negctrl_site1033] | 10.46 ± 0.028
21 | GAGAAACTTGTTTAAACATGCACAAAAAAAAAAAAA [TGCATGCA_site340] | 8.53 ± 0.49
22 | TATATGGAAAATTAAAGTACTAAAGAATAAATAGAA [XGTACX_site8796] | 8.62 ± 0.44

Row | Sequence | gcPBM binding intensity (ln)
23 | TATAAAATAAATTGTGCACACATATTTATAAATATG [CACACA_site2330] | 9.1 ± 0.42
24 | TATAGATACATATACACACACACACCGACATATATA [CACACA_site9138] | 10.2 ± 0.14
25 | GTAGTTACATATAGGGTGCTCCAATAGTTGACCTCG | 8.7 ± 0.42
26 | TCATAGGTTCAAAAGGGTACATTAATACATACATAT [XGTACX_site2236] | 8.78 ± 0.43
27 | AAATAAAAAAAGGGAACATGCAATATGTACAAATAT [TGCATGCA_site869] | 9.18 ± 0.49
28 | CATATATATTGATATGCACACCTATGTATTGATGTA [CACACA_site8269] | 9.03 ± 0.4
29 | AGCATTTTTCATTTTGCACACATGTTTTATGGGTAT [CACACA_site5839] | 9.52 ± 0.37
30 | TCTTTTTTCTTTTTTTCACACATTATTTTTTAAATA [CACACA_site5197] | 8.66 ± 0.5
31 | ACGATGAATATGTAAAGTACGCAAATGTAACAATAT [XGTACX_site728] | 9.26 ± 0.39
32 | TAAGACAATAAATGCTGTACAATTGAATATCTTGGA [XGTACX_site636] | 8.85 ± 0.41
33 | TTATAAAAATTTAGTTGTACATGTCAAATTATCAAT [XGTACX_site7229] | 8.54 ± 0.42
34 | TATTTTATTATTATTATTTCTTTATAGTGTATTCTA [CACACA_negctrl_site517] | 8.65 ± 0.59
35 | AATATATAGCTAAAAACACACAAATATATACACATA [CACACA_site9203] | 9.13 ± 0.38
36 | TTTTCGTAACTGATTCAACACACAAAAGGGGGAAAA [CACACA_site8517] | 9 ± 0.27
37 | GGATAGGCATAACATAGTACGTACAAATATATATAT [XGTACX_site454] | 9.26 ± 0.47
38 | TATTTTATTATTATTATTAGTATGATTTCTTTATAG [CACACA_negctrl_site550] | 8.52 ± 0.51
39 | ATAAAAAAAAAAACAGTAAAATTATAATTATAATTA [TGCATGCA_negctrl_site356] | 8.53 ± 0.44
40 | TTAACAAATAAACACACACACACACCCAAAAAAAAA [CACACA_site8068] | 10.3 ± 0.2
41 | AAAAGCACAAAAAATACACACACAAAAAATAAAAAA [CACACA_site8545] | 9.59 ± 0.4
42 | TAATGATAAATACATACACACAAAAAATGATATATA [CACACA_site7258] | 9.12 ± 0.43
43 | TATATCCCTTAGAATACACACCCATATGAGTGTGAA [CACACA_site8965] | 8.74 ± 0.34
44 | ACAAAAATTAAATAAAGTACATTTTTAAAATACGTA [XGTACX_site3880] | 8.58 ± 0.58

Row | Sequence | gcPBM binding intensity (ln)
45 | AATGTAAAATCTTCATATACATTTAAGTCTGTATTT [TGCATGCA_negctrl_site183] | 8.77 ± 0.49
46 | TGTATACATTCTGAATGTACGGAACACCTCATAACT [XGTACX_site7240] | 8.87 ± 0.45
47 | TTTGTAATAAATAAGAGTACAAGTATGGTTCCACTA [XGTACX_site2579] | 8.63 ± 0.48
48 | TATTTATTGTGACACTTATATTATTTTATGATTAAA [CACACA_negctrl_site525] | 8.55 ± 0.46
49 | AATATATGGTTTCATGATATTAAATTCAAAATAATG [CACACA_negctrl_site318] | 8.48 ± 0.49
50 | TTTTCATTTGTGACAGTGCAAAATGTTATATTAAAA [GTGCAC_site9647] | 8.46 ± 0.34
51 | TATAAAATGATGATATGTACTTATGTAGTTTTTTTA [XGTACX_site8711] | 8.54 ± 0.48
52 | AATAATACATCCTTAGTGCAGAAATAAAAATTAAGC [GTGCAC_site9955] | 8.93 ± 0.35
53 | TAAATACTTGTATATAGTACAAGTTGTTTTTTTTAA [XGTACX_site5643] | 8.34 ± 0.45
54 | ATATGAAAAAGAACTTGTACTAAAGTGGCATATTAT [XGTACX_site8520] | 8.94 ± 0.38
55 | CATATATATTTTATTTGTACGTATAAAAAAACAAAA [XGTACX_site4253] | 8.59 ± 0.36
56 | AAAAAAAAAAAAAACACACACATATAAATATAAATA [CACACA_site6972] | 9.37 ± 0.45
57 | ATTATTTGAAACTATTGTACATTTAAAAACATTTTT [XGTACX_site4896] | 8.32 ± 0.54
58 | TGGAACCTTTAAAATACACACCCAAATCCTTTGAAA [CACACA_site7671] | 8.69 ± 0.35
59 | ATTGGACTATAAATAGGTACACATATATATATATAT [XGTACX_site7562] | 9.64 ± 0.37
60 | TTATATTATGTTCAATCAAAAATTATTTTTAAAAAA [XGTACX_negctrl_site595] | 7.9 ± 0.41
61 | AATGTACACCCACCCACACACAAACAAATATATATA [CACACA_site5521] | 10.1 ± 0.4
62 | GAAAAAAGAAAAAAAAGTACACACATGTATATTAAT [XGTACX_site5265] | 9.21 ± 0.39
63 | AATGTGTTTTTTTTTTTTTTTTTTTTCAATCTCTAT [CACACA_negctrl_site794] | 8.62 ± 0.53
64 | TTTTTGTTTGAACACTGTACGTATAAATATAAAAGT [XGTACX_site6476] | 8.61 ± 0.45
65 | TTTCAAATTTAATACACACACAAGTATATATTTATC [CACACA_site3947] | 9 ± 0.35
66 | TTGTGTTATCACACGAAGGGGATAAGACATAAATGT [TGCATGCA_negctrl_site368] | 8.79 ± 0.39

Row | Sequence | gcPBM binding intensity (ln)
67 | TATATATAAAAACACACACACACACCCTATAATTAT [CACACA_site4063] | 10.18 ± 0.042
68 | TATATACCTATATACACACACATATATAAATAAATA [CACACA_site7341] | 9.34 ± 0.34
69 | TATTTCTGATTACATACACACATATACAGATATGAC [CACACA_site7490] | 9.07 ± 0.23
70 | AAAAAAAAAAAAAGTACACACATACCTATAAATATA [CACACA_site6937] | 9.12 ± 0.46
71 | TTTACCTCTTCAATGGTGCAATAACTCAAAAATTTG | 8.37 ± 0.39
72 | TTTTTATTTTATTAGTGTACTTTATATTTAACAATA [XGTACX_site1175] | 8.57 ± 0.47
73 | ATAAATAAAATAAAAGCACACAAAATGTAAATAATT [CACACA_site8895] | 9.12 ± 0.42
74 | TATATATTTATAAATGAACACACACCCAATTTGAAT [CACACA_site9113] | 9.38 ± 0.3
75 | TTTATATACATTTTAAATTTTAATGTAACCCATGGG [TGCATGCA_negctrl_site115] | 8.31 ± 0.53
76 | TTTATTTTTATAAGAGCATGCACTGTTTAAAATGGT [TGCATGCA_site628] | 8.51 ± 0.4
77 | TTATATATAATATATACACACACATGTATATATAAA [CACACA_site8603] | 9 ± 0.28
78 | TTTGTATTGTGCAGATGTACATTATAATATTGGATT [XGTACX_site5033] | 8.71 ± 0.45
79 | ATTACATACGAGCACACGTAAAAGTATAATATAAAA [GTGCAC_negctrl_site446] | 9.03 ± 0.45
80 | TATGTTCCATTTTTTGGTACACATACAATAACTGCT [XGTACX_site2256] | 8.78 ± 0.38
81 | AACAAATACAAAGAATAGTCATCTGAATGGTGTTAT [GTGCAC_negctrl_site685] | 9.18 ± 0.49
82 | GTTATATGTTATATATATATATATATATATATATAT [TGCATGCA_negctrl_site428] | 9.51 ± 0.27
83 | AATATATACATTTATATACACACCTATATATATATA [CACACA_site1972] | 9.11 ± 0.18
84 | AAATTAATAAGTCACACACACATATATAATATATAT [CACACA_site799] | 9.56 ± 0.27
85 | AGCATCATTTTACACACATGCAAATGTAAAATAGGA [TGCATGCA_site460] | 9.16 ± 0.29
86 | CATATACATATATGTAGTACGTGTTCTTCTATATGA [XGTACX_site8344] | 8.84 ± 0.44
87 | ATTAATATGAAACGATTATAAGAAAGAAAAGAAATG [GTGCAC_negctrl_site701] | 8.68 ± 0.52
